Measured values taken from PubChem BioAssay AID1347120 (National Center for Advancing Translational Sciences (NCATS), 2019).
Hit rate of the full screen: of about 390,000 compounds, about 930 (0.24%) were called active. Inconclusive means that the source gave no clear call. Such entries were picked first, then a sample of the others. Calls come from the whole dose curve; as a rule, active = well fitted activation curve with a large enough effect; inconclusive = small, poorly fitted or top-dose-only effect; inactive = no such curve, though single readings can be large or run the other way. Potencies of inconclusive entries are doubtful fits and often do not repeat.

Experiment: qHTS for Suppressors of FUS Proteinopathy: Primary screen using FUS-linked yeast assay; note: nearly all actives have a fitted effect of over 55% in size;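 for growth rescue (activation): plate controls were DMSO vehicle for no effect and reference control for full effect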
Conditions: S. cerevisiae FUS-expressing, OD600, 24 h; Potency: growth rescue; growth rescue (activation): at 76.6 µM (top of the series)
Procedure, shortened: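 Steps: raffinose overnight preculture; dilution to OD 0.005 in 2% galactose minimal medium; compound addition (concentration series); 24hr at 30C, 99% humidity; absorbance read at 600 nm.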
Potency is the fitted concentration of half-maximal effect; tags give direction and shape of the fitted curve.

SMILES	growth rescue (activation)	Potency
Cc1c(NC(=O)C2CCCN(S(=O)(=O)c3cccc4ccccc34)C2)c(=O)n(-c2ccccc2)n1C (centres undefined)	inactive: 14.8%	–
O=C1CN(C(=O)COc2ccc(Cl)cc2Cl)C(c2ccccc2)c2cc(F)ccc2N1 (centres undefined)	–	active: 31.6 µM
Cc1ccc(NC(=O)Cc2cccc(OC(F)F)c2)c(S(=O)(=O)N2CCOCC2)c1	inactive: 24.8%	–
CC(C)Cn1c(N)c(C(=O)COC(=O)c2cc(C3CC3)nc3ccccc23)c(=O)n(C)c1=O	–	inconclusive: 25.1 µM [activator, single point]
O=C(OCc1nnc(-c2cccs2)o1)C1=NN(c2ccccc2)C(=O)CC1	–	inconclusive: 17.8 µM [activator, partial curve, poor fit]
O=C(NCCO)c1nc2ccccc2s1	inactive: -3.01%	–
CCCCCCCCCCCC(=O)NC(Cc1ccc(OC)c([N+](=O)[O-])c1)C(=O)O (centres undefined)	–	inconclusive: 31.6 µM [activator, single point]
Cc1ccccc1N1C(=O)c2sc3nc4c(c(=O)n3c2C1=O)CCC4	–	inconclusive: 14.1 µM [activator, partial curve, poor fit]
Cc1ccc(S(=O)(=O)N2CC[C@H]3[C@@H](C2)C(=O)C[C@@H](c2ccccc2)N3S(=O)(=O)c2ccc(C)cc2)cc1	–	inconclusive: 12.6 µM [activator, partial curve, poor fit]
CCn1c(/C=C2\C(=O)Nc3ccccc32)nc2ccccc2c1=O	inactive: 25.8%	–
Oc1ccc(NCc2ccccc2OCc2ccc(Cl)cc2)cc1	inactive: 7.93%	–
CCS(=O)(=O)c1ncc(Cl)c(C(=O)NCc2ccc(OC)cc2)n1	inactive: -11.4%	–
CC(C)(C)OC(=O)CNC(=O)c1[nH]cnc1C(=O)N[C@@H](Cc1ccccc1)C(=O)OC(C)(C)C	–	inconclusive: 15.8 µM [activator, single point]
Cc1cccc(NC(=O)C2CCN(c3nnc(C)c4c(C)n(-c5ccccc5)nc34)CC2)c1C	inactive: 27.2%	–
CN(c1ccccc1C(=O)O)S(=O)(=O)c1ccc2[nH]c(=O)oc2c1	inactive: -17.3%	–
O=c1[nH]c(C2CCN(S(=O)(=O)c3ccc(F)cc3)CC2)nc2c1nnn2Cc1ccc2c(c1)OCCO2	–	inconclusive: 25.1 µM [activator, single point]
Cc1c(C(=O)N(C)Cc2ccccc2)oc2c(Cl)cccc12	–	inconclusive: 28.2 µM [activator, single point]
Cc1nn2c(=O)cc(COC(=O)c3cccs3)nc2s1	inactive: 1.33%	–
Cc1cc(C)c2c(CC(=O)Nc3ccccc3C(F)(F)F)coc2c1	inactive: 12.5%	–
CCN(CC)S(=O)(=O)c1ccc(C)c(NC(=O)Cc2ccc(S(=O)(=O)N3CCOCC3)s2)c1	–	inconclusive: 44.7 µM [activator, single point]
Cc1cccc(N2CCN(C(=O)C3CCN(c4ncnc5c4nc4n5CCCCC4)CC3)CC2C)c1 (centres undefined)	–	inconclusive: 25.1 µM [activator, single point]
COc1ccc(-n2c(C)cc(C3=NNC(=NC4CC4)SC3)c2C)cc1	–	active: 15.8 µM

SMILES	growth rescue (activation)	Potency
CC(=O)Nc1cccc(Oc2ccc(-c3noc(C)n3)cc2)c1	–	inconclusive: 15.8 µM [activator, partial curve, poor fit]
NC(=O)[C@H]1CC2(CC(c3cccc(NC(=O)COc4ccc(Cl)cc4)c3)=NO2)CN1C(=O)CC(c1ccccc1)c1ccccc1 (some centres undefined)	inactive: 43.6%	–
Cc1oc2c(C)c3oc(=O)c(CC(=O)N4CCCCC4)c(C)c3cc2c1C	inactive: -26.7%	–
CCc1cc(-c2[nH]ncc2-c2ccc([N+](=O)[O-])cc2)c(O)cc1OC	–	inconclusive: 35.5 µM [activator, single point]
O=c1c(-c2nnc(SCc3ccc(Cl)cc3)o2)cccn1Cc1ccccc1	–	inconclusive: 22.4 µM [activator, partial curve, poor fit]
Cc1ccccc1CCNC(=O)C1CCN(S(=O)(=O)c2ccc3c(ccn3C)c2)CC1	inactive: 0.979%	–
CC(C)(C)c1nnc2sc(SCCN3C(=O)c4ccccc4C3=O)nn2c1=O	–	inconclusive: 50.1 µM [activator, single point]
Cc1ccc(C)c(N2CCN(C(=O)C3CCCN(c4ncnc5c4nc4n5CCCCC4)C3)CC2)c1 (centres undefined)	–	inconclusive: 22.4 µM [activator, partial curve]
O=C(NCCCc1ccccc1)C1CCN(c2nc(-c3ccc(Br)cc3)cs2)CC1	–	inconclusive: 12.6 µM [activator, partial curve, poor fit]
COc1cccc(CNC(=O)c2cccc(S(=O)(=O)N3CCN(C)CC3)c2)c1	inactive: 18%	–
COc1ccc(C2CC(c3ccccc3)=NN2C(=O)COC(=O)c2cccc(N)c2)cc1 (centres undefined)	–	inconclusive: 25.1 µM [activator, single point]
CSC1=NCCN1C(=O)Cc1ccc(-c2ccccc2)cc1	–	inconclusive: 0.794 µM [activator, partial curve, poor fit]
Cc1ccc(NC(=S)NC(NC(=O)c2ccccc2C)C(Cl)(Cl)Cl)c(C)c1 (centres undefined)	–	inconclusive: 17.8 µM [activator, partial curve, poor fit]
Cc1ccc(S(=O)(=O)Nc2ccc3nc(-c4ccc(F)cc4)oc3c2)cc1	inactive: 8.83%	–
Cc1ccc(Cc2c(-c3ccc(F)cc3)nc3ccc(Br)cn23)cc1	–	inconclusive: 50.1 µM [activator, single point]
COc1ccc(/C=C\c2onc(C)c2S(=O)(=O)N2CCC(C(=O)Nc3cccc(OC)c3)CC2)cc1	–	inconclusive: 25.1 µM [activator, partial curve, poor fit]
CC(Sc1nc(N)cc(=O)[nH]1)C(=O)Nc1ccc(N2CCOCC2)cc1 (centres undefined)	–	inconclusive: 28.2 µM [activator, single point]
CCCCNC(=O)C[C@H]1C[C@@]2(C(=O)OC)C(=C[C@H](C3CCCC3)O[C@@H]2C)N(Cc2cccc3ccccc23)C1=O	–	active: 12.6 µM
CCc1ccc(NC(=O)CSC2=C(C#N)C(c3ccco3)C3=C(CCCC3=O)N2)cc1 (centres undefined)	–	inconclusive: 28.2 µM [activator, single point]
COc1ccc2c(c1)[C@@H]1[C@H](CO2)[C@H](c2ccccc2)[C@]2(C)C(=O)Nc3ccc(C)cc3C(=O)N12	–	inconclusive: 44.7 µM [activator, single point]
O=C(CSCc1cnn(-c2ccccc2)c1-n1cccc1)NCc1cccc(Cl)c1	–	inconclusive: 20 µM [activator, single point]
c1ccc(-c2nc(NCCCn3ccnc3)c3oc4ccccc4c3n2)cc1	–	inconclusive: 11.2 µM [activator, partial curve, poor fit]

SMILES	growth rescue (activation)	Potency
O=S(=O)(c1ccccc1)N1CCN(c2ccccc2)CC1	–	inconclusive: 1.58 µM [activator, full curve, poor fit]
Cc1cc(C)c2c(CC(=O)N(Cc3ccc(Cl)cc3)Cc3ccco3)coc2c1	inactive: 27.1%	–
O=C(Nc1ccccc1)c1nc[nH]c1C(=O)O	inactive: -16.5%	–
COc1ccc(Cl)cc1NC(=O)Cn1nnc(C(=O)NCCc2ccc(OC)c(OC)c2)c1N	–	inconclusive: 15.8 µM [activator, partial curve]
CC(=O)c1cccc(NC(=O)CN(c2cc(C)cc(C)c2)S(=O)(=O)c2c(C)noc2C)c1	–	inconclusive: 20 µM [activator, single point]
CC(C)C[C@H]1CNC(=S)N1C[C@H]1CCCN1C[C@H](CC(C)C)N1C[C@H](Cc2ccccc2)N(CCc2ccccc2)C1=S	–	inconclusive: 39.8 µM [activator, partial curve]
Cc1cc(-n2ccnc(NCCc3ccc(S(N)(=O)=O)cc3)c2=O)ccc1Br	inactive: 23.8%	–
Cc1cc(SCC(=O)NC(=O)NCc2ccco2)nc2c(C)cccc12	–	inconclusive: 25.1 µM [activator, partial curve, poor fit]
Cc1cccc(C(=O)N2CCC(=O)N([C@H](COCc3ccc(Cl)cc3)Cc3ccccc3)CC2)c1	–	inconclusive: 28.2 µM [activator, single point]
CCCNC(=O)C1CCC(Cn2c(=O)c3sccc3n(CC(=O)NCc3cccc(OC)c3OC)c2=O)CC1 (centres undefined)	–	inconclusive: 10 µM [activator, partial curve, poor fit]
COc1ccc(-c2nn3c(-c4ccccc4)nnc3s2)cc1	–	inconclusive: 25.1 µM [activator, partial curve]
CC(=O)Oc1ccc2c(C)cc(=O)oc2c1C(=O)c1ccccc1	inactive: 7.1%	–
C=CCN1C(=O)[C@@H](CC(=O)NCc2cccc3ccccc23)[C@]2(C(=O)OCC)CCCCC/C=C/12	–	inconclusive: 35.5 µM [activator, partial curve, poor fit]
Cc1cccc(Oc2cnn(C(C)(C)C)c(=O)c2Cl)c1	inactive: 7.03%	–
COC(=O)c1scc(-c2ccc(C)cc2)c1S(=O)(=O)Nc1cc(C)ccc1OC	–	inconclusive: 22.4 µM [activator, partial curve, poor fit]
Cc1cccc(NC(=O)Cn2c(=O)n(CCCCCC(=O)NCc3ccc4c(c3)OCO4)c(=O)c3sccc32)c1	inactive: -9.87%	–
COc1ccc(NC(=O)NC(C)(C(F)(F)F)C(F)(F)F)cc1	inactive: -4.21%	–
Cc1cc(C)cc(NC(=O)CSc2nc3nccnc3c(=O)n2CCc2c[nH]c3ccccc23)c1	–	inconclusive: 50.1 µM [activator, single point]
CN(C)S(=O)(=O)NCCNC(=O)c1cc(OCC(F)(F)F)ccc1OCC(F)(F)F	–	inconclusive: 50.1 µM [activator, single point]
CC[C@]12c3[nH]c4cc(-c5ccco5)ccc4c3CCN1C(=O)[C@@H](CC(=O)NCCC1=CCCCC1)C[C@@H]2C(=O)N1CCN(C(=O)c2ccco2)CC1	–	inconclusive: 35.5 µM [activator, single point]
